Assay results from PubChem BioAssay AID504333 (National Center for Advancing Translational Sciences (NCATS), 2011).
Screen size: about 360,000 compounds; about 16,000 (4.4%) were called active. The shares of active, inactive and inconclusive entries below differ from those in the screen. Calls follow the shape of the dose curve; as a rule, active = well fitted inhibition curve with a large enough effect; inconclusive = small, poorly fitted or top-dose-only effect; inactive = no such curve, though single readings can be large or run the other way. Potencies of inconclusive entries are doubtful fits and often do not repeat.

target: Bromodomain adjacent to zinc finger domain protein 2B (Homo sapiens) (UniProt Q9UIF8); experiment: qHTS Assay for Inhibitors of BAZ2B; conditions: AlphaScreen BAZ2B-H3K14Ac peptide displacement; activity change, negative = inhibition: at 114 µM (top of the series) unless noted; also: nearly all actives have a fitted effect of over 60% in size
Method in brief: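 Protein-peptide AlphaScreen: BAZ2B 50 nM, b-H3K14Ac 50 nM, 1x PBS pH 7.4 + 0.01% Tween-20. Preincubation 30 min RT; cpd 30 min RT (top 110 uM); beads 20 min RT, light-protected.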
% is scaled to controls: 0 for no effect and ±100 for the full control effect; potency is read from the fitted curve at half-maximal effect; tags tell the direction and shape of the fitted curve.

Sequence of UniProt Q9UIF8 (Q9UIF8 whole entry, looked up, the tested form may be a part): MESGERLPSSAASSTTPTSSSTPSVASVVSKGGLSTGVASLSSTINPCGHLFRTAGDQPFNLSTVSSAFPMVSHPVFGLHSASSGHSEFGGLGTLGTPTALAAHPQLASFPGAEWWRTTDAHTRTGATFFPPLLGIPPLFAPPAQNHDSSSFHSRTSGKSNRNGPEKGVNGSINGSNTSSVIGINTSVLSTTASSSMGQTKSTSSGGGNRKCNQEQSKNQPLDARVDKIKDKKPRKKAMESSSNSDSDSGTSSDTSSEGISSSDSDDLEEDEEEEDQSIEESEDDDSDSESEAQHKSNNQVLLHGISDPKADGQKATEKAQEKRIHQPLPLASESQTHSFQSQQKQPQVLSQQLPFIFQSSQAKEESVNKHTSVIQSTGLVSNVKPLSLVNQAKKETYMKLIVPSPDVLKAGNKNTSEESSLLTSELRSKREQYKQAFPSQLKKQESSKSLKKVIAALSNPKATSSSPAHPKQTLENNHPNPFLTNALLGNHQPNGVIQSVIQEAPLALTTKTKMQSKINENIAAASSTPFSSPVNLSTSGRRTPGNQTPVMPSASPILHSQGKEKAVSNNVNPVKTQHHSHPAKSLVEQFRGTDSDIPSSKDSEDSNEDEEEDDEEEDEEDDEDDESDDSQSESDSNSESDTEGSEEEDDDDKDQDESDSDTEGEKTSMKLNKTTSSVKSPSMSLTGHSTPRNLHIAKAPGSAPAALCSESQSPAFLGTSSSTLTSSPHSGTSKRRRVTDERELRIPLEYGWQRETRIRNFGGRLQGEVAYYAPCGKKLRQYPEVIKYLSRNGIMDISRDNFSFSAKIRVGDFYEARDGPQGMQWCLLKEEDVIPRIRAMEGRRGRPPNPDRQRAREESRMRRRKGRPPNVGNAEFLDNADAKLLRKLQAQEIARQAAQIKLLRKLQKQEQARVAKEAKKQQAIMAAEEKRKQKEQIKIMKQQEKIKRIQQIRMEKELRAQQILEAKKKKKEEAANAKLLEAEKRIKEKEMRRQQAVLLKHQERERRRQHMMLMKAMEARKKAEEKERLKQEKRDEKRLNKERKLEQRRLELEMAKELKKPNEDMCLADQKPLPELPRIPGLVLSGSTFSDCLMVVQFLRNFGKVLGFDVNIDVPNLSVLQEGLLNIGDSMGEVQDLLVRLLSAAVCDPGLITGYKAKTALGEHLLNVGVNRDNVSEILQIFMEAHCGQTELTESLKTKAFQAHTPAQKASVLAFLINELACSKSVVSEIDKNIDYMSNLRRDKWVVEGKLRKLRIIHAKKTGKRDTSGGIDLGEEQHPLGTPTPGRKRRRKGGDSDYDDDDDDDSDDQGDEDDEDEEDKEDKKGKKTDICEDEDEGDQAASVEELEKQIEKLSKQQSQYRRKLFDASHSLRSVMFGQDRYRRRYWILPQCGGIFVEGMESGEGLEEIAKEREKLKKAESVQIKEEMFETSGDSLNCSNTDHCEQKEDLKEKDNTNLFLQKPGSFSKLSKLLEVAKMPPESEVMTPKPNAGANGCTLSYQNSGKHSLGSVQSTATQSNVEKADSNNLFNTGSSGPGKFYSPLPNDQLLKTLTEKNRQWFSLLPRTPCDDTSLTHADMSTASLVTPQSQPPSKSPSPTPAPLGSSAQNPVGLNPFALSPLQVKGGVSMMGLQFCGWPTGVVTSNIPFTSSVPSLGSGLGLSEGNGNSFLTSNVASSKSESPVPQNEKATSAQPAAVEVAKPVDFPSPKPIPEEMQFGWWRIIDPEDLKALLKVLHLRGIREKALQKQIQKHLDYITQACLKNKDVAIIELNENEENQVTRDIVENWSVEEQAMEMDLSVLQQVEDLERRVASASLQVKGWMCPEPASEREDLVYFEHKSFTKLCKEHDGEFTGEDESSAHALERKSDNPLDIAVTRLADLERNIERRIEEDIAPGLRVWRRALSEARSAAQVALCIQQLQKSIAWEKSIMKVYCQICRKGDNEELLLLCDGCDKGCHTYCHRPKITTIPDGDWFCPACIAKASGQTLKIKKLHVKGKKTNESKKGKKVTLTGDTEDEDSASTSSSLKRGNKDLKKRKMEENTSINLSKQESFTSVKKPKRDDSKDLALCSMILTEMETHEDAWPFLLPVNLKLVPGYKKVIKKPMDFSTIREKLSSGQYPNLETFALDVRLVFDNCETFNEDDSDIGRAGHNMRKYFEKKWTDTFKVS

Compound	Potency	activity change, negative = inhibition
CSc1cccc(NC(=O)C(c2ccccc2)N2Cc3ccccc3C2=O)c1 (centres undefined)	inconclusive: 70.8 µM [inhibitor, single point]	
COC(=O)c1cccc(CN2C(=O)SC(Nc3ccc(Br)cc3)C2=O)c1 (centres undefined)	inconclusive: 89.1 µM [inhibitor, single point]	
CCN(CC)c1ccc(S(=O)(=O)N2CCCCC2)cc1NC(=O)C1CSC2(C)CCC(=O)N12 (centres undefined)		inactive: -15.3%
COc1ccc(CC(=O)Nc2ccc(-c3cn4cccc(C)c4n3)cc2)cc1OC	inconclusive: 79.4 µM [inhibitor, single point]	
S=C(c1cn(Cc2ccccc2)c2ccccc12)N1CCOCC1	inconclusive: 39.8 µM [inhibitor, partial curve]	
O=C(CCN1CCOCC1)c1ccc2c(c1)OCCO2		inactive: 3.15%
COc1ccccc1Nc1nc(-c2sc(NC(=O)C(C)(C)C)nc2C)cs1	inconclusive: 39.8 µM [inhibitor, partial curve]	
COc1ccccc1/C=C/c1nc(C#N)c(N2CCN(c3ccccc3)CC2)o1	inconclusive: 2 µM [inhibitor, full curve]	
O=C(COC(=O)c1cncc(Br)c1)Nc1ccc(N2CCCCC2)cc1	inconclusive: 35.5 µM [inhibitor, partial curve]	
O=C(C(c1ccccc1)c1ccccc1)N1CCN(Cc2ccccn2)CC1	active: 56.2 µM	
CC(=O)N1CCN(S(=O)(=O)c2cccc(C(=O)OCc3cccc(F)c3)c2)CC1		inactive: 9.62%
CC(NCCCOc1cccc2ccccc12)c1ccccc1 (centres undefined)	inconclusive: 50.1 µM [inhibitor, partial curve]	
CCCCc1cn([C@@H](CCCCNC(=O)OC(C)(C)C)C(=O)N2CCN(C(=O)OC(C)(C)C)CC2)nn1	inconclusive: 89.1 µM [inhibitor, single point]	
CC(C)(C)c1ccc(OCC(=O)NC(Cc2c[nH]c3ccccc23)C(=O)O)cc1 (centres undefined)	inconclusive: 79.4 µM [inhibitor, single point]	
COc1ccccc1CCn1c(N)cc(=O)[nH]c1=O	inconclusive: 1.12 µM [inhibitor, full curve, poor fit]	
CCOC(=O)c1sc(NC(=O)C2CCCO2)c(C(=O)OCC)c1C (centres undefined)	active: 56.2 µM	
COc1cc(/C=N/NC(=S)NC2CC3C=CC2C3)cc(OC)c1OC (centres undefined)	inconclusive: 28.2 µM [inhibitor, full curve]	
Cc1cc(C(=O)OCC(=O)Nc2ccc(F)cc2)c(C)o1		inactive: 5.86%
COCc1ccc(-c2c(-c3cccc(OC)c3)sc3ccc(OC)cc23)cc1		inactive: -1.8%
Cc1ccccc1-c1cc(C(=O)N2CCCC2)c2ccccc2n1		inactive: -19.8%
CCCNC(=O)c1nn2cc(Br)cnc2c1Br	inconclusive: 79.4 µM [inhibitor, partial curve]	
COc1ccc(-c2c(C)sc(NC(=O)c3ccnn3C)c2C#N)cc1		inactive: 1.27%
CC[C@@H](C)C(NC(=O)OC(C)(C)C)c1cn([C@@H](CCC(=O)OC(C)(C)C)C(=O)N2CCN(C(=O)OC(C)(C)C)CC2)nn1 (some centres undefined)		inactive: -5.07%

Compound	Potency	activity change, negative = inhibition
N#C/C(=N\Nc1ccc(Cl)c(Cl)c1)C(=O)C1CC1	active: 44.7 µM	
Cc1cc(C(=O)NC2CCCCC2)c(C)n1-c1ccc(F)cc1	inconclusive: 50.1 µM [inhibitor, partial curve]	
Cc1ccc(NC(=O)c2nsc(Cl)c2Cl)cc1		inactive: 2.17%
CSC1=NSC2=NC(=O)/C(=C/c3coc4ccc(O)cc4c3=O)C(=N)N12	inconclusive: 89.1 µM [inhibitor, single point]	
O=C1S/C(=C\C=C\c2ccco2)C(=O)N1c1ccc(O)cc1	active: 44.7 µM	
O=C(Nc1ccc2c(c1)OCCO2)N1CCN(c2ccc(F)cc2)CC1	inconclusive: 35.5 µM [inhibitor, partial curve, poor fit]	
O=C(N1CCN(c2ccccc2)CC1)C12CC3CC(CC(C3)C1)C2	inconclusive: 70.8 µM [inhibitor, single point]	
COc1ccc(OC)c2c(=O)cc(C(=O)O)[nH]c12	inconclusive: 89.1 µM [inhibitor, single point]	
COc1cc2c(cc1NC(=S)Nc1cccc(C)c1)oc1ccccc12	inconclusive: 89.1 µM [inhibitor, single point]	
COc1ccc(CCN2C(=O)CSC2=S)cc1OC	inconclusive: 89.1 µM [inhibitor, single point]	
CCOC(=O)C(C)Sc1nc2c(c(=O)[nH]c(=O)n2C)n1C/C=C(/C)Cl (centres undefined)		inactive: -5.04%
O=C(O)/C=C/C(=O)NCc1ccccc1		inactive: -3.36%
CCn1c(NCc2ccc(N(C)C)cc2)nc2ccccc21	inconclusive: 44.7 µM [inhibitor, partial curve]	
O=C(CSc1ccc(Cl)cc1)N/N=C/c1ccc([N+](=O)[O-])o1	inconclusive: 89.1 µM [inhibitor, single point]	
NC(=O)c1ccc(-n2nnnc2SCC(=O)c2ccc(O)c(O)c2)cc1	inconclusive: 79.4 µM [inhibitor, single point]	
COc1ccc(S(=O)(=O)N2CCOCC2)cc1NC(=O)CN(C)Cc1c(F)cccc1Cl	inconclusive: 79.4 µM [inhibitor, single point]	
O=C1CC(N2CCN(C3CC(=O)N(CCc4ccccc4)C3=O)CC2)C(=O)N1CCc1ccccc1 (centres undefined)		inactive: -2.4%
Cc1ccc(NC(=O)c2ccc([N+](=O)[O-])o2)cc1C	inconclusive: 70.8 µM [inhibitor, single point]	
Cc1sc2ncn(CC(=O)NCc3ccco3)c(=O)c2c1-c1ccc(F)cc1	inconclusive: 50.1 µM [inhibitor, partial curve]	
Cc1ccc(S(=O)(=O)N2[C@@H](c3ccccc3F)C(C(=O)O)=CC[C@H]2c2ccc(Cl)c(Cl)c2)cc1	active: 70.8 µM	
COc1ccc(OCC(=O)OCCN(C)C)cc1	inconclusive: 89.1 µM [inhibitor, single point]	
COc1ccc(CNC(=O)CN2CCN(C(c3ccccc3)c3ccccc3)CC2)cc1	inconclusive: 79.4 µM [inhibitor, single point]	
CC(C)C1NC2(C(=O)c3ccccc3C2=O)C2C(=O)N(c3ccc(F)cc3)C(=O)C12 (centres undefined)	inconclusive: 89.1 µM [inhibitor, single point]	

Compound	Potency	activity change, negative = inhibition
Cc1ccc(S(=O)(=O)NCCCCCC(=O)Nc2nccs2)cc1	active: 79.4 µM	
O=C(COc1ccc2c(-c3ccccc3)cc(=O)oc2c1)NCCCn1ccnc1	inconclusive: 50.1 µM [inhibitor, partial curve]	
Cc1ccc(CN(C)C(=O)C2CCCN2C(=O)c2cccs2)o1 (centres undefined)		inactive: -23.4%
CCOC(=O)c1c(NC(=O)c2cc3ccccc3c(=O)o2)sc2c1CCCC2	inconclusive: 89.1 µM [inhibitor, single point]	
O=C(c1n[nH]c2ccccc12)N1CCN(S(=O)(=O)c2ccc(Cl)cc2)CC1		inactive: 1.83%
CCCN(CCC)CCNC(=O)c1cc(Sc2ccc(Cl)cc2)nc2ccccc12		inactive: 26.9%
CN1/C(=C/C=C(/C#N)C(N)=O)C(C)(C)c2ccccc21		inactive: 5.13%
Cc1cc(S(=O)(=O)NCC(c2ccc(F)cc2)N2CCN(C)CC2)ccc1F (centres undefined)		inactive: 10.3%
CCSC1=NC2(CCN(C(=O)NC3CCCCC3)CC2)N=C1c1ccc(C)c(C)c1		inactive: -1.29% [at 57.1 µM]
O=C(COc1ccc(/C=N/NC(=O)CSCc2ccc([N+](=O)[O-])cc2)cc1)NCc1ccco1	inconclusive: 79.4 µM [inhibitor, single point]	
COc1ccccc1NC1=C(Cl)C(=O)N(C2CCCCC2)C1=O	inconclusive: 28.2 µM [inhibitor, full curve, poor fit]	
COc1ccc(/C=C2\SC(=S)N(C(C)C(=O)NC3C=CS(=O)(=O)C3)C2=O)cc1 (centres undefined)	inconclusive: 20 µM [inhibitor, full curve]	
CCOc1ccc(C(=O)Nc2cccc3ncccc23)cc1Br	inconclusive: 3.55 µM [inhibitor, full curve, poor fit]	
CC(=O)Nc1ccc(S(=O)(=O)Nc2ccc3c(c2)n(C)c(=O)n3C)c(C)c1	active: 50.1 µM	
CCC1=C(OC(=O)N(CC)CC)N2C(=O)OC(=NCCc3c[nH]c4ccccc34)[C@]2(Cc2ccccc2)[C@H]2C1=CC[C@H]1C(=O)N(CC(=O)OC)C(=O)[C@H]12	inconclusive: 35.5 µM [inhibitor, partial curve]	
CCc1ccc(C2C(C#N)=C(N)SC(N)=C2C#N)cc1	inconclusive: 89.1 µM [inhibitor, single point]	
Cc1[nH][nH]c(=O)c1C(c1c(C)[nH][nH]c1=O)c1cn(Cc2ccccc2Cl)c2ccccc12	inconclusive: 0.708 µM [inhibitor, full curve, poor fit]	
COc1cc(C2C(=O)N(C3CCC(C)CC3)CC(=O)N2CCc2ccc(Cl)cc2)ccc1OC(C)C (centres undefined)		inactive: -1.66%
O=C(CN1C(=O)/C(=C/c2ccccc2)SC1=S)NNC(=O)c1ccccc1O	active: 79.4 µM	
N#CCC(=O)Nc1ccc(C(=O)OCC(=O)Nc2ccccc2Sc2ccccc2)cc1	inconclusive: 79.4 µM [inhibitor, single point]	
CCN(c1ccccc1)S(=O)(=O)c1nnc(NC(=O)COc2ccccc2F)s1	inconclusive: 2.82 µM [inhibitor, single point]	
CC(C(=O)Nc1ccc2c(c1)OCO2)N1CCC(N2CCCCC2)CC1 (centres undefined)	active: 50.1 µM	
c1ccc(Cc2noc(CN3CCN(C4CCc5ccccc5C4)CC3)n2)cc1 (centres undefined)	inconclusive: 100 µM [inhibitor, partial curve]	
